# According to the supplement of paper PMC4967469:
# Lines with a small IC50 respond at low doses; fits outside the tested doses are given as limits. AUC, from the same fit, is the share of area under the viability curve across the 256-fold dose range; the more sensitive the line, the further below 1. For part of these data: The top dose, if marked as inferred, comes from the curve model; the source does not state it.
# What was measured:
# Test in all cases: Viability of human cancer cell lines after 72 h of drug (GDSC screen)
# YK 4-279 = compound: COc1ccc(C(=O)CC2(O)C(=O)Nc3c(Cl)ccc(Cl)c32)cc1 [YK 4-279]; details: top dose 10 µM
# Method: (§1)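 Human cancer cell lines in 384-well plates, medium with 10% serum, drug for 72 h over a 256-fold dose range (nine 2-fold or five 4-fold steps up to the top dose). Adherent lines were fixed and stained with the nucleic acid dye Syto60, suspension lines read with resazurin; signal relative to control wells, capped at 0 and 100%. One two-parameter sigmoid per drug and line, fitted in a mixed model over all curves with the slope shared within a line.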
# AZD7762 = compound: NC(=O)Nc1cc(-c2cccc(F)c2)sc1C(=O)N[C@H]1CCCNC1 [AZD7762]; details: top dose 2 µM
# Method: as §1
# GSK-650394 = compound: O=C(O)c1ccc(-c2c[nH]c3ncc(-c4ccccc4)cc23)cc1C1CCCC1 [GSK-650394]; details: top dose 16 µM; top dose inferred
# Method: as §1
# Etoposide = compound: COc1cc([C@@H]2c3cc4c(cc3[C@@H](O[C@@H]3O[C@@H]5CO[C@@H](C)O[C@H]5[C@H](O)[C@H]3O)[C@H]3COC(=O)[C@H]23)OCO4)cc(OC)c1O [Etoposide]; details: top dose 16 µM
# Method: as §1
# NPK76-II-72-1 = compound: COc1cc(C(=O)NC2CCN(C)CC2)ccc1Nc1ncc2c(n1)N(C1CCCC1)C(C)CC(=O)N2C [NPK76-II-72-1]; details: top dose 10.24 µM; top dose inferred
# Method: as §1
# XAV 939 = compound: Oc1nc(-c2ccc(C(F)(F)F)cc2)nc2c1CSCC2 [XAV 939]; details: top dose 5 µM; top dose inferred
# Method: as §1
# BMS-345541 = compound: Cc1ccc2nc(NCCN)c3ncc(C)n3c2c1 [BMS-345541]; details: top dose 16 µM
# Method: as §1
# Bexarotene = compound: C=C(c1ccc(C(=O)O)cc1)c1cc2c(cc1C)C(C)(C)CCC2(C)C [Bexarotene]; details: top dose 8 µM
# Method: as §1
Cell Line,AUC (YK 4-279),IC50 (YK 4-279),AUC (AZD7762),IC50 (AZD7762),AUC (GSK-650394),IC50 (GSK-650394),AUC (Etoposide),IC50 (Etoposide),AUC (NPK76-II-72-1),IC50 (NPK76-II-72-1),AUC (XAV 939),IC50 (XAV 939),AUC (BMS-345541),IC50 (BMS-345541),AUC (Bexarotene),IC50 (Bexarotene)
"Mo-T (hairy cell leukaemia, suspension)",0.808,5.3 µM,0.756,0.698 µM,0.975,> 16 µM,0.948,> 16 µM,0.889,> 10.2 µM,0.981,> 5 µM,0.829,10.2 µM,0.973,> 8 µM
"NAMALWA (Burkitt lymphoma, suspension)",0.715,2.26 µM,0.531,0.15 µM,0.985,> 16 µM,0.431,0.668 µM,0.563,0.925 µM,0.99,> 5 µM,0.802,6.47 µM,0.979,> 8 µM
"NB5 (neuroblastoma, adherent)",0.547,0.838 µM,0.801,0.99 µM,0.91,> 16 µM,0.842,11.5 µM,0.796,4.87 µM,0.982,> 5 µM,0.885,> 16 µM,0.987,> 8 µM
"NB10 (neuroblastoma, adherent)",0.577,1.01 µM,0.686,0.408 µM,0.925,> 16 µM,0.826,9.35 µM,0.805,5 µM,0.96,> 5 µM,0.904,> 16 µM,0.979,> 8 µM
"NB12 (neuroblastoma, adherent)",0.79,6.24 µM,0.926,> 2 µM,0.896,> 16 µM,0.44,0.65 µM,0.945,> 10.2 µM,0.851,> 5 µM,0.827,14.8 µM,0.931,> 8 µM
"NB13 (neuroblastoma, adherent)",0.661,1.65 µM,0.717,0.473 µM,0.837,8.99 µM,0.586,1.67 µM,0.67,1.79 µM,0.987,> 5 µM,0.927,> 16 µM,0.985,> 8 µM
"NB(TU)1-10 (neuroblastoma, adherent)",0.992,> 10 µM,0.884,1.66 µM,0.927,> 16 µM,0.794,6.26 µM,0.788,3.86 µM,0.993,> 5 µM,0.972,> 16 µM,0.993,> 8 µM
"NCI-H69 (small cell lung carcinoma, suspension)",0.695,2.37 µM,0.938,> 2 µM,0.838,12.6 µM,0.741,5.36 µM,0.911,> 10.2 µM,0.959,> 5 µM,0.878,> 16 µM,0.983,> 8 µM
"NCI-H82 (small cell lung carcinoma, suspension)",0.962,> 10 µM,0.61,0.247 µM,0.901,> 16 µM,0.942,> 16 µM,0.671,1.86 µM,0.975,> 5 µM,0.878,14.7 µM,0.971,> 8 µM
"NCI-H209 (small cell lung carcinoma, suspension)",0.88,> 10 µM,0.683,0.423 µM,0.925,> 16 µM,0.496,0.972 µM,0.781,4.58 µM,0.927,> 5 µM,0.909,> 16 µM,0.921,> 8 µM
"NCI-H211 (small cell lung carcinoma, adherent)",0.828,5.91 µM,0.808,0.999 µM,0.849,11.5 µM,0.423,0.619 µM,0.354,0.255 µM,0.947,> 5 µM,0.868,14 µM,0.982,> 8 µM
"NCI-H322M (lung adenocarcinoma, suspension)",0.947,> 10 µM,0.903,> 2 µM,0.987,> 16 µM,0.987,> 16 µM,0.983,> 10.2 µM,0.973,> 5 µM,0.933,> 16 µM,0.98,> 8 µM
"NCI-H345 (small cell lung carcinoma, suspension)",0.964,> 10 µM,0.967,> 2 µM,0.99,> 16 µM,0.979,> 16 µM,0.989,> 10.2 µM,0.989,> 5 µM,0.99,> 16 µM,0.983,> 8 µM
"NCI-H524 (small cell lung carcinoma, suspension)",0.591,1.08 µM,0.81,0.916 µM,0.941,> 16 µM,0.965,> 16 µM,0.756,3.17 µM,0.989,> 5 µM,0.888,14.6 µM,0.986,> 8 µM
"NCI-H526 (small cell lung carcinoma, suspension)",0.976,> 10 µM,0.864,1.62 µM,0.765,5.63 µM,0.393,0.517 µM,0.451,0.474 µM,0.974,> 5 µM,0.76,5.43 µM,0.99,> 8 µM
"NCI-H596 (lung adenocarcinoma, adherent)",0.812,7.45 µM,0.903,> 2 µM,0.964,> 16 µM,0.812,11.8 µM,0.935,> 10.2 µM,0.972,> 5 µM,0.893,> 16 µM,0.957,> 8 µM

Cell Line,AUC (YK 4-279),IC50 (YK 4-279),AUC (AZD7762),IC50 (AZD7762),AUC (GSK-650394),IC50 (GSK-650394),AUC (Etoposide),IC50 (Etoposide),AUC (NPK76-II-72-1),IC50 (NPK76-II-72-1),AUC (XAV 939),IC50 (XAV 939),AUC (BMS-345541),IC50 (BMS-345541),AUC (Bexarotene),IC50 (Bexarotene)
"NCI-H650 (lung adenocarcinoma, adherent)",0.682,2.14 µM,0.848,1.72 µM,0.762,6.25 µM,0.774,6.95 µM,0.918,> 10.2 µM,0.985,> 5 µM,0.833,11.8 µM,0.986,> 8 µM
"NCI-H720 (lung carcinoid, suspension)",0.914,> 10 µM,0.737,0.554 µM,0.992,> 16 µM,0.989,> 16 µM,0.991,> 10.2 µM,0.985,> 5 µM,0.989,> 16 µM,0.99,> 8 µM
"NCI-H727 (lung carcinoid, adherent)",0.921,> 10 µM,0.679,0.552 µM,0.821,> 16 µM,0.97,> 16 µM,0.962,> 10.2 µM,0.972,> 5 µM,0.809,> 16 µM,0.935,> 8 µM
"NCI-H747 (large intestine, adherent)",0.819,7.39 µM,0.916,> 2 µM,0.932,> 16 µM,0.844,15.3 µM,0.894,> 10.2 µM,0.924,> 5 µM,0.7,4.19 µM,0.958,> 8 µM
"NCI-H810 (large cell lung carcinoma, adherent)",0.706,2.31 µM,0.862,1.6 µM,0.9,> 16 µM,0.585,1.69 µM,0.648,1.62 µM,0.942,> 5 µM,0.874,14.4 µM,0.928,> 8 µM
"NCI-H841 (small cell lung carcinoma, adherent)",0.691,2.14 µM,0.79,0.898 µM,0.985,> 16 µM,0.871,15.2 µM,0.909,> 10.2 µM,0.976,> 5 µM,0.875,15.9 µM,0.967,> 8 µM
"NCI-H847 (small cell lung carcinoma, adherent)",0.607,1.16 µM,0.818,0.864 µM,0.378,0.496 µM,0.827,7.4 µM,0.453,0.488 µM,0.988,> 5 µM,0.84,8.1 µM,0.982,> 8 µM
"NCI-H1092 (small cell lung carcinoma, suspension)",0.918,> 10 µM,0.986,> 2 µM,0.984,> 16 µM,0.96,> 16 µM,0.847,7.63 µM,0.984,> 5 µM,0.849,12.2 µM,0.989,> 8 µM
"NCI-H1155 (large cell lung carcinoma, suspension)",0.775,3.26 µM,0.672,0.342 µM,0.993,> 16 µM,0.874,,0.909,9.8 µM,0.973,> 5 µM,0.898,13.7 µM,0.982,> 8 µM
"NCI-H1304 (small cell lung carcinoma, suspension)",0.985,> 10 µM,0.947,> 2 µM,0.823,10.4 µM,0.629,2.35 µM,0.988,> 10.2 µM,0.986,> 5 µM,0.826,10.7 µM,0.988,> 8 µM
"NCI-H1395 (lung adenocarcinoma, adherent)",0.776,5.37 µM,0.586,0.233 µM,0.972,> 16 µM,0.961,> 16 µM,0.886,> 10.2 µM,0.956,> 5 µM,0.822,13.7 µM,0.969,> 8 µM
"NCI-H1435 (lung adenocarcinoma, semi-adherent)",0.991,> 10 µM,0.983,> 2 µM,0.965,> 16 µM,0.861,11.2 µM,0.993,> 10.2 µM,0.988,> 5 µM,0.946,> 16 µM,0.942,> 8 µM
"NCI-H1436 (small cell lung carcinoma, suspension)",0.828,7.41 µM,0.888,> 2 µM,0.901,> 16 µM,0.968,> 16 µM,0.696,2.48 µM,0.974,> 5 µM,0.842,13.6 µM,0.986,> 8 µM
"NCI-H1563 (lung adenocarcinoma, adherent)",0.852,> 10 µM,0.695,0.495 µM,0.973,> 16 µM,0.735,5.42 µM,0.941,> 10.2 µM,0.979,> 5 µM,0.866,> 16 µM,0.967,> 8 µM
"NCI-H1568 (lung adenocarcinoma, adherent)",0.792,5.85 µM,0.716,0.601 µM,0.912,> 16 µM,0.675,3.49 µM,0.982,> 10.2 µM,0.911,> 5 µM,0.867,> 16 µM,0.949,> 8 µM
